Assay results taken from the antibiotic and cytotoxicity screens of Wong et al. (2023).
Some of the results follow.

Assays:
[1] = system: HSkMC (human skeletal muscle cells); test: cytotoxicity call (relative viability < 0.9); conditions: 10 µM
[2] = system: HepG2; test: cytotoxicity call (relative viability < 0.9); conditions: 10 µM
[3] = system: S. aureus RN4220; test: growth inhibition call (relative growth <= 0.2); conditions: 50 µM

SMILES | cytotoxicity call [1] | cytotoxicity call [2] | growth inhibition call [3]
O=C(O)c1cc2ccccc2c(Cc2c(O)c(C(=O)O)cc3ccccc23)c1O.OCCOCCN1CCN(C(c2ccccc2)c2ccc(Cl)cc2)CC1 | inactive | inactive | inactive
COc1ccc(NC(=O)N(C)C[C@@H]2Oc3c(NC(=O)c4ccc(-c5nccs5)cc4)cccc3C(=O)N([C@H](C)CO)C[C@@H]2C)cc1 | inactive | inactive | inactive
C[C@H]1CCCCO[C@@H](CN(C)C(=O)Nc2ccc3c(c2)OCO3)[C@@H](C)CN([C@@H](C)CO)C(=O)c2cc(NC(=O)NC3CCCCC3)ccc2O1 | inactive | inactive | inactive
C[C@H](CO)N1C[C@H](C)[C@H](CN(C)S(=O)(=O)c2cn(C)cn2)Oc2c(NC(=O)C3CCCCC3)cccc2C1=O | inactive | inactive | inactive
Cc1nc(C)c(Cl)c(O)c1Cl | inactive | inactive | inactive
CO[C@H]1CN(C)C(=O)c2cc(NC(=O)NC(C)C)ccc2OC[C@@H](C)N(Cc2ccc(-c3ccccn3)cc2)C[C@H]1C | inactive | inactive | inactive
CCCCS(=O)(=O)NC1=NCN(CCO)CN1 | inactive | inactive | inactive
NC(=O)[C@H]1[C@@H]2C(=O)O[C@@H](c3ccccc3)[C@@H](c3ccccc3)N2[C@@H](c2ccccc2OCCO)[C@]12C(=O)Nc1ccc(C#CC3=CCCCC3)cc12 | active | active | inactive
C[C@@H]1CN([C@H](C)CO)C(=O)c2cc(NC(=O)c3ccccc3)ccc2O[C@@H](C)CCCCO[C@@H]1CN(C)C(=O)Nc1cccc2ccccc12 | inactive | inactive | inactive
